Results taken from the supplement of paper PMC6609913.
Where a name gives a salt, the structure may show the parent alone. ± gives the standard deviation of the averaged measurements. Over roughly 1,300 compounds, “normalised cell viability” has its median near 1; the lowest 2% begin near 0.14. The list shows a part of the results.

Test system: V-C8 (BRCA2-deficient hamster cells)
Test: normalised cell viability (fraction of plate median); higher = more viable cells (less toxic)
Conditions: 5 µM
Procedure, shortened: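 Hamster V-C8 cells lacking BRCA2 and V-C8 cells with BRCA2 restored were seeded in 96-well plates. Library drugs (10 mM DMSO stocks) were added 24 h later at 5 μM in 100 μl medium, next to DMSO control wells, for 3 days (screen 1) or 6 days (screen 2). Cell viability was read by resazurin assay, median-plate normalised (modified robust per cent of sample), and triplicate wells were averaged.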

Row | Compound | normalised cell viability (treatment time: 3 days) | normalised cell viability (treatment time: 6 days)
1 | COc1cc(NS(=O)(=O)c2ccc(N)cc2)nc(OC)n1 [Sulfadimethoxine] | 0.958 ± 0.017 | 0.99 ± 0.058
2 | CC[N+](CC)(CC(=O)Nc1c(C)cccc1C)Cc1ccccc1 [Denatonium benzoate] | 1.01 ± 0.031 | 1.07 ± 0.019
3 | CC1(C)O[C@@H]2[C@@H](CO[C@@]3(COS(N)(=O)=O)OC(C)(C)O[C@@H]23)O1 [Topiramate] | 1.13 ± 0.26 | 1.08 ± 0.021
4 | Cc1cccc(Nc2ccncc2S(=O)(=O)NC(=O)NC(C)C)c1 [Torsemide] | 1.115 ± 0.01 | 1.11 ± 0.07
5 | NC(=O)N1c2ccccc2CC(=O)c2ccccc21 [Oxcarbazepine] | 1.06 ± 0.018 | 1.08 ± 0.029
6 | CC(C)Cn1cnc2c(N)nc3ccccc3c21 [Imiquimod] | 1.11 ± 0.044 | 1.02 ± 0.064
7 | CC(C)(Oc1ccc(Cl)cc1)C(=O)O [Clofibric acid] | 0.918 ± 0.17 | 0.996 ± 0.051
8 | CN(C)CC/C=C1\c2ccccc2CSc2ccccc21 [Dosulepin hydrochloride] | 0.161 ± 0.012 | 0.149 ± 0.0031
9 | Cn1c(=O)c2c(ncn2CC(=O)O)n(C)c1=O [Acefylline] | 1.04 ± 0.016 | 1.02 ± 0.018
10 | CC(C)(S)[C@@H](N)C(=O)O [Penicillamine] | 0.964 ± 0.074 | 1.04 ± 0.097
11 | CO[C@H]1C[C@H](O[C@H]2[C@H](C)[C@@H](O[C@@H]3O[C@H](C)C[C@H](N(C)C)[C@H]3OC(C)=O)[C@@H](C)C[C@@]3(CO3)C(=O)[C@H](C)[C@@H](OC(C)=O)[C@@H](C)[C@@H](C)OC(=O)[C@@H]2C)O[C@@H](C)[C@@H]1OC(C)=O [Troleandomycin] | 1.05 ± 0.074 | 1.12 ± 0.11
12 | COc1ccc(-c2ccc(=N)n(CCCC(=O)O)n2)cc1 [Gabazine bromide] | 1.07 ± 0.069 | 1.05 ± 0.086
13 | Cc1cc(C(=O)NNCc2ccccc2)no1 [Isocarboxazid] | 0.942 ± 0.034 | 0.901 ± 0.07
14 | COc1cc(OC)c(C(=O)CCCN2CCCC2)c(OC)c1 [Buflomedil hydrochloride] | 1.06 ± 0.089 | 1.14 ± 0.2
15 | N#CC(c1ccc(Cl)cc1)c1c(Cl)cc(-n2ncc(=O)[nH]c2=O)cc1Cl (stereo not given) [Diclazuril] | 0.905 ± 0.068 | 0.875 ± 0.068
16 | COc1ccc2c(c1)N(C[C@H](C)CN(C)C)c1ccccc1S2 [Methotrimeprazine maleat salt] | 0.858 ± 0.05 | 0.796 ± 0.026
17 | CCCN(CCC)C(=O)C(CCC(=O)O)NC(=O)c1ccccc1 (stereo not given) [Proglumide] | 1.05 ± 0.045 | 0.977 ± 0.11
18 | CCN1C(=O)NC(c2ccccc2)C1=O (stereo not given) [Ethotoin] | 1.04 ± 0.017 | 1.07 ± 0.094
19 | CN1CCC(=C2c3ccccc3CC(=O)c3sccc32)CC1 [Ketotifen fumarate] | 1.06 ± 0.12 | 1.06 ± 0.022
20 | COc1ccccc1N1CCN(CC(O)COc2cccc3ccccc23)CC1 (stereo not given) [Naftopidil dihydrochloride] | 0.88 ± 0.049 | 0.915 ± 0.016
21 | CN1CCCC(CC2c3ccccc3Sc3ccccc32)C1 (stereo not given) [Metixene hydrochloride] | 0.57 ± 0.02 | 0.69 ± 0.052
22 | CC(C)(Sc1cc(C(C)(C)C)c(O)c(C(C)(C)C)c1)Sc1cc(C(C)(C)C)c(O)c(C(C)(C)C)c1 [Probucol] | 0.942 ± 0.042 | 1.02 ± 0.041

Row | Compound | normalised cell viability (treatment time: 3 days) | normalised cell viability (treatment time: 6 days)
23 | Cn1ccnc1S [Methimazole] | 1.04 ± 0.037 | 0.994 ± 0.053
24 | Nc1c(Br)cc(Br)cc1CN[C@H]1CC[C@H](O)CC1 [Ambroxol hydrochloride] | 1.15 ± 0.012 | 1.1 ± 0.077
25 | CC(C)(C(=O)c1cccnc1)c1cccnc1 [Metyrapone] | 1.02 ± 0.046 | 0.843 ± 0.16
26 | O=c1cc(-c2ccc(O)c(O)c2)oc2cc(O)cc(O)c12 [Luteolin] | 0.87 ± 0.014 | 0.914 ± 0.073
27 | CC(C)/N=c1\cc2n(-c3ccc(Cl)cc3)c3ccccc3nc-2cc1Nc1ccc(Cl)cc1 [Clofazimine] | 0.148 ± 0.0016 | 0.133 ± 0.017
28 | O=C1Cc2cc(CCN3CCN(c4nsc5ccccc45)CC3)c(Cl)cc2N1 [Ziprasidone  Hydrochloride] | 0.181 ± 0.01 | 0.206 ± 0.0036
29 | CCN[C@H]1C[C@H](C)S(=O)(=O)c2sc(S(N)(=O)=O)cc21 [Dorzolamide hydrochloride] | 0.92 ± 0.09 | 0.961 ± 0.061
30 | CC(=O)N(O)CCCCCNC(=O)CCC(=O)N(O)CCCCCNC(=O)CCC(=O)N(O)CCCCCN [Deferoxamine mesylate] | 0.305 ± 0.021 | 0.198 ± 0.011
31 | CCOC(=O)C(C)(C)Oc1ccc(Cl)cc1 [Clofibrate] | 1.05 ± 0.047 | 1.1 ± 0.074
32 | CC(C)NC[C@H](O)COc1ccc(CC(N)=O)cc1 [(S)-(-)-Atenolol] | 1.21 ± 0.34 | 1.02 ± 0.035
33 | CO[C@@]1(NC(=O)CSCC#N)C(=O)N2C(C(=O)O)=C(CSc3nnnn3C)CS[C@@H]21 [Cefmetazole sodium salt] | 1.02 ± 0.016 | 1.03 ± 0.085
34 | C[C@@H]1[C@H](O)[C@@H](C)/C=C/C=C/C=C/C=C/C=C/C=C/C=C/[C@H](O[C@@H]2O[C@H](C)[C@@H](O)[C@H](N)[C@@H]2O)C[C@@H]2O[C@](O)(C[C@@H](O)C[C@@H](O)[C@H](O)CC[C@@H](O)C[C@@H](O)CC(=O)O[C@H]1C)C[C@H](O)[C@H]2C(=O)O [Amphotericin B] | 0.944 ± 0.067 | 0.916 ± 0.077
35 | CCC(NC(C)C)C(O)c1ccc(O)c(O)c1 (stereo not given) [Isoetharine mesylate salt] | 1.12 ± 0.077 | 0.953 ± 0.1
36 | CCC(Cc1c(I)cc(I)c(N)c1I)C(=O)O (stereo not given) [Iopanoic acid] | 0.999 ± 0.036 | 1.07 ± 0.033
37 | CN1CCc2cccc3c2[C@H]1Cc1ccc(O)c(O)c1-3 [R(-) Apomorphine hydrochloride hemihydrate] | 0.654 ± 0.02 | 0.871 ± 0.026
38 | CN1CCN(C2=Nc3cc(Cl)ccc3Nc3ccccc32)CC1 [Clozapine] | 1.01 ± 0.04 | 1 ± 0.038
39 | C[C@@H]1NC(=O)NC1=O [Methylhydantoin-5-(L)] | 1 ± 0.089 | 1.07 ± 0.013
40 | CC1CCc2c(N3CCC(O)CC3)c(F)cc3c(=O)c(C(=O)O)cn1c23 (stereo not given) [Nadifloxacin] | 0.907 ± 0.067 | 1.01 ± 0.12
41 | Cc1ccc(-c2ncc(Cl)cc2-c2ccc(S(C)(=O)=O)cc2)cn1 [Etoricoxib] | 0.95 ± 0.078 | 1.04 ± 0.047
42 | NC12CC3CC(CC(C3)C1)C2 [Adamantamine fumarate] | 0.886 ± 0.064 | 0.899 ± 0.027
43 | Cc1cc(=O)n(-c2ccccc2)n1C [Antipyrine] | 1.03 ± 0.014 | 1.05 ± 0.048
44 | Clc1ccc(COC(Cn2ccnc2)c2ccc(Cl)cc2Cl)c(Cl)c1 (stereo not given) [Miconazole] | 0.421 ± 0.048 | 0.473 ± 0.023

Row | Compound | normalised cell viability (treatment time: 3 days) | normalised cell viability (treatment time: 6 days)
45 | NS(=O)(=O)c1cc2c(cc1Cl)N=CNS2(=O)=O [Chlorothiazide] | 1.01 ± 0.077 | 1.018 ± 0.0027
46 | CN[C@H](CC(C)C)C(=O)N[C@H]1C(=O)N[C@@H](CC(N)=O)C(=O)N[C@H]2C(=O)N[C@H]3C(=O)N[C@H](C(=O)N[C@H](C(=O)O)c4cc(O)cc(O)c4-c4cc3ccc4O)[C@H](O)c3ccc(c(Cl)c3)Oc3cc2cc(c3O[C@@H]2O[C@H](CO)[C@@H](O)[C@H](O)[C@H]2O[C@H]2C[C@](C)(N)[C@H](O)[C@H](C)O2)Oc2ccc(cc2Cl)[C@H]1O [Vancomycin hydrochloride] | 0.159 ± 0.01 | 0.141 ± 0.0064
47 | CNS(=O)(=O)Cc1ccc2[nH]cc(CCN(C)C)c2c1 [Sumatriptan succinate] | 0.992 ± 0.049 | 0.957 ± 0.12
48 | CC(C)COCC(CN(Cc1ccccc1)c1ccccc1)N1CCCC1 (stereo not given) [Bepridil hydrochloride] | 0.398 ± 0.033 | 0.691 ± 0.011
49 | NC(=O)c1ncn([C@@H]2O[C@H](CO)[C@@H](O)[C@H]2O)n1 [Ribavirin] | 0.684 ± 0.021 | 0.552 ± 0.025
50 | CCOC(=O)[C@H](CCc1ccccc1)N[C@@H](C)C(=O)N1[C@H](C(=O)O)C[C@@H]2CCC[C@@H]21 [Ramipril] | 1.09 ± 0.029 | 1.15 ± 0.18
51 | CCOc1ccc2c(c1)C(C)=CC(C)(C)N2 [Ethoxyquin] | 0.883 ± 0.014 | 1.2 ± 0.26
52 | NS(=O)(=O)c1cc(C(=O)O)c(NCc2ccco2)cc1Cl [Furosemide] | 1.04 ± 0.058 | 1.06 ± 0.079
53 | Cc1cc(C2CCCCC2)n(O)c(=O)c1 [Ciclopirox ethanolamine] | 0.207 ± 0.012 | 0.23 ± 0.015
54 | COc1cc(C(=O)NS(=O)(=O)c2ccccc2C)ccc1Cc1cn(C)c2ccc(NC(=O)OC3CCCC3)cc12 [Zafirlukast] | 1.06 ± 0.015 | 1.04 ± 0.033
55 | CC(C)(C)C(=O)OCOC(=O)[C@@H]1N2C(=O)[C@@H](NC(=O)[C@H](N)c3ccccc3)[C@H]2SC1(C)C [Pivampicillin] | 1.02 ± 0.075 | 1.01 ± 0.1
56 | O=C1NCN(c2ccccc2)C12CCN(CCCC(c1ccc(F)cc1)c1ccc(F)cc1)CC2 [Fluspirilen] | 0.472 ± 0.045 | 0.235 ± 0.12
57 | N=C(N)NC(=O)c1nc(Cl)c(N)nc1N [Amiloride hydrochloride dihydrate] | 0.998 ± 0.021 | 0.953 ± 0.12
58 | CCCCOC(=O)c1ccc(N)cc1 [Butamben] | 0.601 ± 0.041 | 0.833 ± 0.059
59 | CCCCC1=NC2(CCCC2)C(=O)N1Cc1ccc(-c2ccccc2-c2nnn[nH]2)cc1 [Irbesartan] | 1.06 ± 0.026 | 1.12 ± 0.068
60 | N[C@@H]1CCCCN(c2c(F)cc3c(=O)c(C(=O)O)cn(C4CC4)c3c2Cl)C1 [Besifloxacin hydrochloride] | 1.11 ± 0.095 | 1.04 ± 0.032
61 | CCOc1ccccc1OCC1CNCCO1 (stereo not given) [Viloxazine hydrochloride] | 1.02 ± 0.038 | 0.953 ± 0.061
62 | CC[C@H]1OC(=O)[C@H](C)[C@@H](O[C@H]2C[C@@](C)(OC)[C@@H](O)[C@H](C)O2)[C@H](C)[C@@H](O[C@@H]2O[C@H](C)C[C@H](N(C)C)[C@H]2O)[C@](C)(OC)C[C@@H](C)C(=O)[C@H](C)[C@@H](O)[C@]1(C)O [Clarithromycin] | 1.03 ± 0.029 | 1.1 ± 0.025
63 | COCC1=C(C(=O)OC(C)OC(=O)OC(C)C)N2C(=O)[C@@H](NC(=O)/C(=N\OC)c3csc(N)n3)[C@H]2SC1 (stereo not given in full) [Cefpodoxime proxetil] | 1.18 ± 0.025 | 1.06 ± 0.086
64 | CCN(CC)CCOC(=O)C(c1ccccc1)C1CCCCC1 (stereo not given) [Drofenine hydrochloride] | 1.02 ± 0.038 | 1.02 ± 0.07
65 | COc1cc(Cc2cnc(N)nc2N)cc(OC)c1OC [Trimethoprim] | 1.06 ± 0.054 | 1 ± 0.059
